Over roughly 33,000 sequences, “E-score (-0.5 to 0.5)” has its median near -0.011; the highest 2% begin near 0.28. This is one part of the list.
Molecular target: T1, Gcr1 (UniProt P07261)
T1 sequence: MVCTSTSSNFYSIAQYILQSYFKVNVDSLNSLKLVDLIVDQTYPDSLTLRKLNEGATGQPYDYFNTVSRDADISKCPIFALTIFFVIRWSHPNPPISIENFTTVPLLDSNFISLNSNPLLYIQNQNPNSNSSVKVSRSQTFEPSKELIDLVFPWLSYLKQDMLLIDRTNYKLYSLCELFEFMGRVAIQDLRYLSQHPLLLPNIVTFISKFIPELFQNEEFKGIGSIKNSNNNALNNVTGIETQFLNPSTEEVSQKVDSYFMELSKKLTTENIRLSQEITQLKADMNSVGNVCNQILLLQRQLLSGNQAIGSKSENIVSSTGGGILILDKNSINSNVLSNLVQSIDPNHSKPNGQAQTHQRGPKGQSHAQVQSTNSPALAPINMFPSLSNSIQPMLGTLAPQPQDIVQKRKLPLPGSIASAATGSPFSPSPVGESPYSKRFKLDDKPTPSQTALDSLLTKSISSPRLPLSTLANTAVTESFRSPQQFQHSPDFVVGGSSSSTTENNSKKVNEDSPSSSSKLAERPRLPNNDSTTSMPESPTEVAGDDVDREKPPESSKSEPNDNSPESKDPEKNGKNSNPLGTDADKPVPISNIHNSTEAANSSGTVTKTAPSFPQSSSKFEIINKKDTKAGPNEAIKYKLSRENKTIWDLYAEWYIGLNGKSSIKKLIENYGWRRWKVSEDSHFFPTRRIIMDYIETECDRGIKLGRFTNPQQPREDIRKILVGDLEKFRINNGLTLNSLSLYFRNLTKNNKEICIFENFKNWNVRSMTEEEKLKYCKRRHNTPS
Assay: PBM E-score (8-mer binding enrichment) (E-score (-0.5 to 0.5)); higher = stronger / more preferred TF binding; most listed sequences are background and not binding sites
Conditions: protein concentration: 100 nM; construct: GST-full length
Procedure, shortened: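 Bound GST-tagged yeast transcription factors, applied at about 100-200 nM to double-stranded universal all-10-mer Agilent arrays, were detected with fluorescent anti-GST. Scans were normalised with masliner. A modified Wilcoxon-Mann-Whitney statistic, the E-score, was assigned to each ungapped eight-base word pooled with its reverse complement by the Universal PBM Analysis Suite.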

Sequence | PBM E-score
AGTCTATG | -0.147
ATGAAGAA | 0.0394
GCTCATAC | -0.289
GAAAGCCC | 0.0298
GATCTCGC | -0.16
CAATTCTC | -0.0342
ATTGTGTC | -0.0665
ACTTATAC | 0.0669
AAGTAAGT | -0.139
AACGGCAG | 0.0355
AAAGTTAA | 0.0767
CTGCCGCC | -0.0844
GTTGCCTA | -0.0107
GACCATCA | -0.251
CAAGTTGA | 0.0659
AGTCGGAC | -0.093
TACTATGA | -0.00506
GAGCGCTC | -0.0936
GTTGGACA | -0.00959
ATAGAAAG | 0.0346
ATACCGCG | 0.127
ATTTATTG | 0.107

Sequence | PBM E-score
AACAGTAT | -0.00126
CCATTGAG | 0.12
ACTTATGG | 0.163
GCTGGGTA | -0.0497
ACAGATAG | -0.00305
ATGCACTC | -0.126
ATACCAAA | 0.174
AACTTCTC | 0.00601
CCGATTTC | 0.0757
CCCCGCCC | 0.338
ATTTCGTA | 0.122
CTTGAGAA | 0.0493
AACGTTCC | 0.032
GGAGTTTA | -0.0666
CGAAATGC | -0.237
GCCGATAC | -0.172
CACGCATC | 0.198
ATACTCCG | -0.0531
AACGAGTG | -0.0992
TAACAGGA | 0.198
CGGCGCAG | -0.0325
AGTACCAC | 0.0794

Sequence | PBM E-score
ACCCTCAT | -0.111
CCGGTTAG | 0.185
GCTAGTGA | -0.0869
CGCCTAAC | 0.166
CTACCGAA | -0.0445
CTCCAAGA | 0.0262
CTGGAGTC | 0.172
TACTGTCA | -0.0784
AGGATTCA | -0.164
CAACAATA | 0.0483
ACCCCCCT | -0.356
CTTTCCAC | -0.0221
ACGTATAC | 0.102
AATTGCGC | -0.0135
CATGGTAA | 0.00173
ACCCTCGT | 0.00187
ACTTCCCG | 0.0552
AGTTAGGA | 0.112
GGCTAGTA | -0.0456
CACTTCCG | 0.0282
CGCGGGAC | -0.102
CATGGCAC | -0.0233

Sequence | PBM E-score
CGTGGGCA | -0.108
CGTATCGA | -0.103
AACATTGA | 0.0845
CCACTCGA | 0.159
CGTGAGAA | -0.16
ACGCAAGT | -0.0202
AGTTAGTC | -0.0577
GTGCGACA | -0.158
AGGAATGA | -0.0586
TCAAGTCA | -0.0403
AAAGGCGC | 0.182
CTCGCACC | -0.0379
TCGTGAGA | -0.0171
AACCAGGC | -0.0479
AGGCAACC | 0.0186
ATTAAAAA | 0.332
ACGTTTTC | 0.00046
GTCTGAAC | -0.172
AAGAATTC | 0.272
AAGGCGAA | -0.0278

Reference: the supplement of paper PMC3334620
